This is one part of the list.
Test system: PF3D7_0420300 AP2 domain 1 (GST-tagged)
Test: gcPBM binding intensity (ln(normalized median fluorescence intensity)); higher = stronger DNA binding
Procedure, shortened: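 Alexa488 anti-GST antibody, scanned at 488 nm, detected GST-tagged P. falciparum DNA-binding domains that had been expressed in E. coli and incubated for 1 h on an Agilent 4 × 180k array. The array carried primer-extended double-stranded 36-bp intergenic genomic probes and negative controls. Binding intensity is the highest Masliner-normalised natural-log median intensity across replicate spots of either orientation of each probe.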

Point of comparison: “AATAAGCTCACGTGTCGTACATTTTTTAAAACAACC [XGTACX_site4707]”, “gcPBM binding intensity (ln)” value 9.3. Against it:
- TGAAATTTCAATACATGTACATATAAAAAAAAAAAA [XGTACX_site4424] — lower, 9.13
- TGTATATGTGAAGCAAGGGATGCGGCAGACATAACA [CACACA_negctrl_site1339] — higher, 9.59
- TTTTTTTTTTCTACAAGTACATATTTTCATTTAACA [XGTACX_site6621] — lower, 9.14
- AAATTAAAAAAAAATAAATAAAAAAAAAAAAAAAAT [CACACA_negctrl_site1611] — higher, 9.35
- AAAAAAAAAAAAAAATGTACATATATATATTATAAA [XGTACX_site518] — lower, 9.17
- AAACGTATGTTATTTACACACCCTTCCACTTTTATA [CACACA_site3337] — higher, 9.54
- TATAAAATAAGACATGCATGTTATACATATATATTT [TGCATGCA_site156] — lower, 9.29
- CATTATTATTTTATAACACACACATATATATTATAT [CACACA_site8405] — higher, 9.59
- ATGTTTTTTATTCTTCGTACGTATGAACGATAGTGT [XGTACX_site4225] — lower, 9.28
- AAAAGATTTATACATACACACATATTATAGTCACAT [CACACA_site7701] — higher, 9.77
- GGAAACCTTTTTTTTACACACAATATATTAATACTT [CACACA_site1403] — higher, 9.69
- TTTGTTTTAAATATTATACACACGTAAAAGTAGAAT [CACACA_site214] — higher, 9.38
- CAAGAAAATGGACACACACACATATATATATATATA [CACACA_site6010] — higher, 9.68
- CAAATTTAAAAAAAATCACACACAGAAAAAAAAAAA [CACACA_site8728] — higher, 9.66
- TACACCCTATTTTTATGTACTTATTTGATTTACACA [XGTACX_site8172] — higher, 9.65
- ATATAAATACGGTGTGCACACACATAATATATATAT [CACACA_site2271] — higher, 9.96
- TGTATACGCATATGTACACACATATATATGTATATG [CACACA_site3087] — higher, 9.51
- GTGTAATTATCAGCATAAATATGGTACATACATAAA [CACACA_negctrl_site323] — higher, 9.38
- TTTTTTTTTTTGTTCACACATATACTTTTATTTTGG [CACACA_site4250] — higher, 9.46
- AATGCTATCATTAATGCACACATTTAAACTTAATAT [CACACA_site5878] — higher, 9.36
- TATAACGCTTGCAGCTGTACAAAAATAATCAAACTG [XGTACX_site2464] — lower, 9.04
- TTAAATGAAAAAATATGTACGTATAATAAGAAATAT [XGTACX_site6619] — higher, 9.57
- GTATGAGTCGTAGAGTGTACTCTGGAGAAAACTACA [XGTACX_site4942] — lower, 9.15
- TATTTTTTCTTAAACACACACATATATATATAGAAT [CACACA_site2836] — higher, 9.55
- TTTTTTCTTAGTTATACATGCAAAATAAATAAATAA [TGCATGCA_site410] — lower, 8.82
- ATTTATATATAATTTTGTACGAAAAAAATAAGGTAT [XGTACX_site3578] — higher, 9.31
- TATATATTTATTAAATGTACATAACAAAAATGGTAT [XGTACX_site3577] — higher, 9.32
- AAATAAAGTAAAATATGTACATAAATTAAAACACAT [XGTACX_site8539] — higher, 9.83
- TGCATACATAAATGTATATATTAATATATATCATAT [GTGCAC_negctrl_site252] — lower, 9.2
- AAAAAAAACGAACACACACACATACAAAATCTATAT [CACACA_site6795] — higher, 10.1
- TTAAAAGAATATAATGCACACATTATTTTATTTTAT [CACACA_site3772] — lower, 9.2
- AATACATAATAACATGTACACACATTCTTCTATAAA [CACACA_site9344] — higher, 9.51
- TATACGAAATTGTGCACACATATATTTATGTATGTA [CACACA_site1509] — higher, 9.42
- TACCCACGTATATATATACACACTAATATACACCCA [CACACA_site9381] — higher, 9.52
- ATTTACATTCACTTATGTACTTATATAATTTTATTT [XGTACX_site8150] — higher, 9.54
- AATGTATAATTATAATGTACAAATAATATATAATAT [XGTACX_site5407] — higher, 9.43
- TAACTCCACAAATAATGTACATATATCACTATATTT [XGTACX_site4911] — lower, 9.22
- TACATATGAAAATACACACATACATACATATATATA [CACACA_site1673] — higher, 9.77
- TATATAATATATATTTTATATTTGTAATAATTTTTT [GTGCAC_negctrl_site497] — lower, 9.02
- TATATTAAACATATATGTACATATTTTTTCTGAACA [XGTACX_site5390] — lower, 9.08
- TATTGTTTTTTTGATTTTTTTTTTTTTTTTAATGAA [CACACA_negctrl_site824] — the same, 9.3
- AATATCAATGATGTTACATGCAAGAGAATCCACAAA [TGCATGCA_site678] — lower, 9.24
- ACCAAATCATATATAGCACACAAATTCTTTATTATT [CACACA_site8911] — higher, 9.4
- AATATTTTCTGTAATACTTCTTTTCAATTTATTTCG [CACACA_negctrl_site1390] — higher, 9.47
- ACGTAAAATTATTATTGTACATGTAAATAATTTGGA [XGTACX_site8154] — lower, 9.23
- ATAGAAAGTGACAATTGTACATACATATTATATATA [XGTACX_site4390] — higher, 9.34
- TTCTTGGAATACAAGTGTACTTTATTATTATTATTA [XGTACX_site5997] — lower, 9.25
- AAAAAAAAAAAAAAAAAAAAATTTCAATTATATTGA [GTGCAC_negctrl_site642] — lower, 8.91
- TTTTTTTTTGCCTACTGTACTATTTTTGAGCTCACC [XGTACX_site7967] — higher, 9.35
- AAAATTATAATATATACACACATATATATATTAAAT [CACACA_site473] — higher, 9.49
- CAAAATATAGATGACACACACAAAAAAAGTATATTA [CACACA_site6848] — higher, 9.92
- AAGCTTCCTTAATATACACACATATCTGAGTATATT [CACACA_site5939] — higher, 9.57
- AGATAAAAAAAGTACACACACACATATATATATATA [CACACA_site3072] — higher, 9.82
- CATTTACCCTTATTAACACACAAAATATAATACGCT [CACACA_site2565] — higher, 9.56
- TTTTTTTTTTTTTGGTGTACCATAGGTAAAATGATT [XGTACX_site8020] — lower, 8.91
- ATTTATGGAAAAAGAACACACAATCAAACAAAAATA [CACACA_site3707] — higher, 9.71
- ATATAAATGAATATATGTACATATATATATATATAT [XGTACX_site6361] — lower, 9.11
- TGACCTGTTCAGGTAACACACATATAAACCCATACA [CACACA_site31] — higher, 9.54
- ATGCTATAGGATCTTACACACATTTTTGTAAAAAAA [CACACA_site1868] — higher, 9.41
- AAAATCAAAAAAACAAGTACAAATGTGGACTTTTTT [XGTACX_site5363] — lower, 9.27
- TGTTCTATGGTTTGTAGTACTTTAATAAATATAAAT [XGTACX_site7823] — lower, 9.2
- TCAAAAAAAAAAAAAAAAAAAAAAAAAAAAAAAAAA [CACACA_negctrl_site1753] — lower, 8.47
- TATATATATATATATGTGCACTGAAAGAATTATACA [GTGCAC_site9586] — lower, 9.29
- GCTCAATTTTTGGGTACACACAAATGTATAAGAATA [CACACA_site7178] — lower, 9.22
- TTTTTCTAATTATGCACACATATCAAAATATTCAAT [CACACA_site2749] — lower, 9.25
- ATATATATAGAAATATGTACGAAAAAAATATCACAT [XGTACX_site746] — higher, 9.35
- TATTTATTTTATATATGTACATAATATATTCTTATA [XGTACX_site1619] — lower, 9.17
- GGAATAGTGATATATACACACAAATACATATTTATA [CACACA_site6183] — higher, 9.59
- AATTAATAAGAAAGGTGTACAGAAAAAAAAAAATAT [XGTACX_site2106] — higher, 9.68
- TTTAATAAAATTCTAGTGCAAAAAGGAAAAAACAAA [GTGCAC_site9642] — higher, 9.39
- AATATATAGGAAAAAGTGCAATAAATGAACAAAATA — higher, 9.71
- AAAAGAAATGACAAATTGGATAGATAATAGGGGGTA [GTGCAC_negctrl_site262] — higher, 9.72
- AATTTTGATATATATTGTACGCATTTTTAAATGCCA [XGTACX_site7694] — lower, 9.06
- TTATTTACTTATTGCACACATATAAAATATATTTAT [CACACA_site3101] — higher, 9.44
- GAAGTTTTTTAAAGATGTACTTTTTAAAAATAATGT [XGTACX_site1975] — lower, 8.91
- TTCTTAATTTAAAATTGTACTTAAGTAATACTTATG [XGTACX_site3928] — lower, 8.97
- AAAAAAAAAAAAAATACACACATATATAAATAAATA [CACACA_site6459] — higher, 9.68
- AAGAACTCATTAATAATGTAATATTTTATAATTTAG [CACACA_negctrl_site321] — lower, 8.92
- ATAATAAAACTCAAAGTGCATTAGAATAATTGTAAA — higher, 9.42
- ATTCATAAATATATTTGTACATATTATATATAAATA [XGTACX_site1907] — lower, 9.09
- TAATATATAACGTGCACACACACATTTACGTATGAA [CACACA_site1832] — higher, 9.79
- TATACATATTTCTATTGTACATAAACTAAATCTTCA [XGTACX_site28] — lower, 8.87
- ACAATAAATATGTGGTTGCACTTATAATATATTTAT — lower, 9.27
- GATATTATTGCATATTTACACACGTACTAATTTAAA [CACACA_site8231] — higher, 9.72
- TACAATTGTAAAGGCGCACACATATATATATATATA [CACACA_site1392] — higher, 9.56
- TTTTTATAATAAAAAAATATAACTATATTAAGCCAC [CACACA_negctrl_site555] — lower, 9.11
- CACAGTGATATAAAAACACACATGAATTAAAATTTC [CACACA_site4999] — higher, 9.33
- TATTTTTATCAATTCACACATAAATATATTTATATG [CACACA_site5547] — lower, 9.19

Reference: the supplement of paper PMC11417369
